Measured values from the supplement of paper PMC10126150.
Values marked as one replicate rest on one cluster of the flow cell; about a third of the high ones do not repeat.

Test system: ATP
Assay: switch fluorescence ratio, 500 uM ATP over buffer (Cy3 cluster intensity, sum of 5 cycles each) (fold (ratio)); higher = stronger signal-on switching upon ATP binding; sequences stand for … in TCGTCGGCAGCGTCAGATGTGTATAAGAGACAGTTTTTTTTTTTTTTTTTTTTTTTTT…TC
Conditions: aptamer strand: ATP DNA aptamer (quencher-CACCTGGGGGAGTATTGCGGAGGAAGG + anchor), 100 nM annealed; ATP concentration: 500 uM; one replicate
Procedure, shortened: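 Values give the fluorescence ratio for each switch-domain sequence, averaged from per-cluster ratios of summed target-cycle to summed buffer-cycle Cy3 intensity. The Cy3-labelled switching-strand clusters sat on a modified Illumina MiSeq flow-cell, were annealed to 100 nM quencher-labelled ATP aptamer, and were imaged in selection buffer, then after 15 min with 500 uM ATP at 22 °C. Five cycles ran with NaOH stripping and re-annealing between them, and clusters outside 100-1000 RFU were excluded.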
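Note: ATP exposure 15 min at 22 °C before imaging.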

Row | Sequence | switch fluorescence ratio
1 | GGGCGAGGAA | 1.02
2 | GGGGTAACAC | 0.97
3 | ACTTGAGGTG | 1.12
4 | TTTGGAATGT | 1.07
5 | ACGTAACTAA | 1.23
6 | TGGAGTCTGT | 0.952
7 | GTGCAATAAT | 1.53
8 | GGCACAGTTG | 1
9 | GGGTGCTTTC | 0.927
10 | AAGTAGATCG | 0.976
11 | AGTAAATCAG | 1
12 | CATCAGGTGT | 4.55
13 | GGCGGGGT | 1
14 | AGGTATAGGC | 1.02
15 | GGTCATGCAT | 0.991
16 | GTTAACGTCT | 1.01
17 | ACATACTCTC | 1.28
18 | CTGGGGCCGT | 1.05
19 | TATGTAA | 0.956
20 | AGGCCTGTCC | 1.02
21 | CATAAAGTAC | 1.22
22 | TGCTTCTGA | 0.968
23 | GGTGGTGG | 1.01

Row | Sequence | switch fluorescence ratio
24 | ACACCGAAGA | 1.07
25 | TATTACCCCT | 1.06
26 | TGCCCAGGGT | 1.05
27 | ATTTCGGATC | 1.05
28 | TAAGCCGTGG | 1.04
29 | ACATTTGACC | 0.989
30 | GTGCAAGGGC | 1.11
31 | GCCTCGGGTT | 0.997
32 | CGCCGCAGGT | 1.67
33 | GTGAGCAGGT | 1.01
34 | CAAATCCGAC | 1.25
35 | GCCTGAGGGG | 1.38
36 | ATACATCGAA | 1.03
37 | CCAGTCCCAT | 1.08
38 | CAGCTTTGGC | 0.959
39 | CTTCAAGTGA | 1.01
40 | CCGTTATTGC | 2.24
41 | GCACACCTGT | 1.01
42 | AATTAAAAGG | 1.02
43 | GTTTGGCTAC | 1.06
44 | CGCTCTTAGG | 1.01
45 | GTGAAAGATA | 0.976
46 | AAATCGTGCT | 0.988

Row | Sequence | switch fluorescence ratio
47 | TGTCCATGGA | 1.07
48 | GCAACGCCCG | 1.08
49 | GGCCGAAA | 0.962
50 | TAATCGGGC | 1.04
51 | TCCTTTAGAC | 1.09
52 | AAGGGTAATT | 1
53 | TGTGCTTGAC | 1.02
54 | GGGCCCACAC | 0.969
55 | GAACTCTTCA | 1.02
56 | TTAACGTACT | 1.76
57 | TAGCGCGTGC | 0.962
58 | CTGTATGAGA | 1.01
59 | AGATGGCTGC | 1
60 | GGTCGACACA | 1.03
61 | GAACTTCGCT | 1.06
62 | TCAACTAAAA | 0.994
63 | AATGACACTT | 1.02
64 | GCAGACGAAC | 1.45
65 | CAGCATGTAC | 4.05
66 | GGGCTCAAAT | 1
67 | AACGTCTCTA | 0.991
68 | TTATTCATGA | 0.979
69 | ACCCTAAACC | 1.17

Row | Sequence | switch fluorescence ratio
70 | TACAATCAGT | 1.03
71 | ATCCGCTCTG | 1.14
72 | ATGCCGCAT | 0.988
73 | CTCCGAGGTA | 2.63
74 | CCCGTTGGGC | 1.07
75 | GCGGACGCTT | 1.02
76 | TGCACCGCTT | 1.23
77 | CATCGGTATC | 1.13
78 | TAAGGGATGC | 1.02
79 | AAGGACTTTA | 1.01
80 | AGTGATGCCG | 1.06
81 | GCGTAGAGCA | 1.09
82 | ATGTCAGCCG | 0.953
83 | AGAACTTTAT | 1.03
84 | ATCTACTTAT | 1.04
85 | TAATTTCTCG | 0.972
86 | ATGCCCTGGG | 0.981
87 | TGTACTCCAA | 1.1
88 | ATGAGGTGAA | 0.989
89 | CCAAGTCG | 1.03
90 | TATCAGGAAT | 0.974
91 | TAGAAAGGTG | 1.22
92 | ATGTCTCGCC | 0.959

Row | Sequence | switch fluorescence ratio
93 | ACTCACTCAT | 1.22
94 | GGTTCAAAAA | 1.02
95 | TTAAAACAC | 1.05
96 | AATTACGCCT | 1.12
97 | GTGGAACTT | 1.04
98 | GCGCAAAAAT | 1.05
99 | AGAATCAGGA | 0.978
100 | GAAGTACATG | 1.22
101 | CCGCCACATT | 2.04
102 | AGTGTATTCA | 1.12
103 | CGGCAGGTCA | 1.02
104 | CATATAATAT | 0.983
105 | GCCAGGGGCT | 1.01
106 | CTATTGCGTG | 1.01
107 | TAGTGCAATT | 1.04
108 | TGCAAGCCAT | 0.997
109 | TAATGAGGTA | 0.975
110 | CAGACATGTG | 1.06
111 | TTGTCCTTAG | 0.996
112 | AGAGCGGGAA | 1.01
113 | TACGGCGAAA | 1.01
114 | TCAGAGGGAG | 0.965
115 | CAGCAGCCGT | 1.03

Row | Sequence | switch fluorescence ratio
116 | ACTCATCGTC | 1.06
117 | GGTAGGGCTT | 0.964
118 | ACGTAGTTAA | 1.03
119 | ATGGCGCTCT | 1.01
120 | GCGCCCACGT | 0.99
121 | TGGGGGTGT | 1.01
122 | TAAGAGCTCC | 1.01
123 | CTTTTAAAC | 0.987
124 | TTAGATTAAT | 1.16
125 | CATGACAGCC | 1.05
126 | CTGGAGGTTT | 1.03
127 | ATTGTAAGG | 0.981
128 | AACCTTCCCG | 1.88
129 | TTAACCTTTA | 1.14
130 | GGCTTTATGC | 0.97
131 | ATGAGCCCCC | 0.98
132 | GTATAAAAGG | 0.968
133 | GATCTCCGTG | 1.11
134 | TCGTGACGCG | 0.957
135 | GGTGTGTGGA | 1.01
136 | CCCATCAACA | 0.994
137 | ATCTGACACT | 1
138 | TCTAAAAACA | 1.02

Row | Sequence | switch fluorescence ratio
139 | TACTAGACG | 1.14
140 | AAAAGGTGGG | 1.01
141 | GTTATTCAAG | 1
142 | AGTCTGAGCC | 0.967
143 | GCATAGTTGC | 1.03
144 | GAATTACATT | 0.986
145 | ATTCTAATCT | 0.977
146 | TCTTTCCGTT | 1.01
147 | GATTGAGACA | 1.04
148 | CAACTTACGC | 1.26
149 | GTCACTAGTT | 1
150 | GTTTGAAGTG | 0.984
151 | GATGCTGTAA | 1.09
152 | TCCACAATCT | 1.96
153 | CTCTCCGGAC | 5.46
154 | CGATCACATT | 0.991
155 | TCGAAAGGTG | 1.21
156 | CCGCGGGTAG | 1.14
157 | CCTGGGGACT | 0.97
